B1: CYP21A2_Y259_L261P (peptide)
chain: RDMMDYMPQGV
B2: CYP3A4_Y432_I431T (peptide)
chain: IDPYTYTPFGS
B3: CYBB_Y324 (peptide)
chain: MEVGQYIFVKC
B4: CYP4A22_Y104_Y104F_YF (peptide)
chain: LFDPDFMKVIL
B5: CYP21A2_Y259 (peptide)
chain: RDMMDYMLQGV
B6: CYP4A22_Y100_Y104F (peptide)
chain: VRVQLYDPDFM
B7: CYP4A22_Y100 (peptide)
chain: VRVQLYDPDYM
B8: CYP2D6_Y124_F120I (peptide)
chain: VILARYGPAWR
B9: CYCS_Y47_G42S_YF (peptide)
chain: SQAPGYSFTAA
B10: CYP39A1_Y102_R103H (peptide)
chain: VQNIVYHTASI
B11: CYP17A1_Y60_YF (peptide)
chain: KLQKKYGPIFS
B12: DCP1B_Y191 (peptide)
chain: SSSAIYDNPNL
B13: CYP7B1_Y365 (peptide)
chain: LRLSSYSTTIR
B14: CYP1A2_Y72 (peptide)
chain: RMSQRYGDVLQ
B15: DCLRE1C_Y322 (peptide)
chain: SFHSSYSEIKD
B16: CYBA_Y88_R90W_YF (peptide)
chain: FTRNFYVWAVL
B17: CYP2C8_Y243 (peptide)
chain: ALTRSYIREKV
B18: DCDC2_Y22 (peptide)
chain: KSVLVYRNGDP
B19: CYP21A2_Y190 (peptide)
chain: NLMPAYYKCIQ

19 molecules from the supplement of paper PMC10369915 can be followed below.

This is one part of the list. Rule as the data show it: active = 3.2 or more and inactive = the rest. The signal is at background level for most entries.
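Also: displayed peptides selected on beads carrying the immobilized SH2 domain, with library peptides lacking any tyrosine serving as negative controls.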

The target in one test is SHP2 C-SH2 domain E139D. The test is described as follows: enrichment score (SH2-bound / input frequency) (ratio); bacterial display of known human phosphotyrosine sites (pTyr-Var adds point mutants) read by sequencing; higher = stronger binding; tyrosines were phosphorylated by kinases first. As to conditions: peptide library: pTyr-Var.
In the case of B1, the enrichment score is inactive: 0.895.

On to B2, for which the enrichment score was inactive: 0.763.

As for B3, the enrichment score is inactive: 1.3.

With B4, the enrichment score is inactive: 1.62.

Turning to B5, the enrichment score was inactive: 0.959.

With B6, the enrichment score was inactive: 1.28.

As to B7, the enrichment score is inactive: 1.23.

For the molecule B8, the enrichment score was inactive: 0.366.

For B9, the enrichment score was inactive: 0.762.

With B10, the enrichment score is inactive: 1.12.

Consider B11, for which the enrichment score is inactive: 0.834.

As for B12, the enrichment score is inactive: 0.485.

As to B13, the enrichment score was inactive: 1.22.

As to B14, the enrichment score was inactive: 0.896.

As to B15, the enrichment score is inactive: 0.931.

With B16, the enrichment score was inactive: 0.495.

Take B17: the enrichment score was inactive: 0.404.

For B18, the enrichment score was inactive: 1.06.

Consider B19, for which the enrichment score was inactive: 0.967.

The target in the next test is SHP2 C-SH2 domain wild-type. The description is as above. As to conditions: peptide library: pTyr-Var.
For B1, the enrichment score was inactive: 0.717.

For B2, the enrichment score was inactive: 0.813.

Consider B3, for which the enrichment score was inactive: 1.73.

Regarding B4, the enrichment score is inactive: 1.66.

B5: the enrichment score is inactive: 0.861.

With B6, the enrichment score was inactive: 1.01.

As for B7, the enrichment score is inactive: 1.15.

For B8, the enrichment score is inactive: 0.339.

As to B9, the enrichment score was inactive: 0.76.

Take B10: the enrichment score is inactive: 1.61.

Consider B11, for which the enrichment score was inactive: 0.787.

For B12, the enrichment score was inactive: 0.581.

Turning to B13, the enrichment score is inactive: 1.06.

As for B14, the enrichment score was inactive: 0.799.

As to B15, the enrichment score is inactive: 1.59.

Consider B16, for which the enrichment score is inactive: 0.708.

Turning to B17, the enrichment score was inactive: 0.345.

With B18, the enrichment score is inactive: 0.926.

B19: the enrichment score is inactive: 1.

Another test has as its target SHP2 N-SH2 domain L43F. The description is as above. As to conditions: peptide library: pTyr-Var.
On to B1, for which the enrichment score was inactive: 0.853.

As for B2, the enrichment score is inactive: 0.734.

In the case of B3, the enrichment score is inactive: 1.29.

With B4, the enrichment score was inactive: 1.61.

Consider B5, for which the enrichment score was inactive: 0.853.

For the molecule B6, the enrichment score was inactive: 1.3.

In the case of B7, the enrichment score is inactive: 1.33.

Regarding B8, the enrichment score is inactive: 0.264.

For B9, the enrichment score was inactive: 0.671.

With B10, the enrichment score is inactive: 1.38.

As for B11, the enrichment score was inactive: 0.82.

Take B12: the enrichment score is inactive: 0.458.

B13: the enrichment score was inactive: 0.981.

In the case of B14, the enrichment score is inactive: 1.17.

In the case of B15, the enrichment score was inactive: 0.872.

As to B16, the enrichment score is inactive: 0.682.

B17: the enrichment score was inactive: 0.328.

Turning to B18, the enrichment score was inactive: 1.16.

Turning to B19, the enrichment score is inactive: 1.11.

The next test concerns the target SHP2 N-SH2 domain T42A. The test is described as above. As to conditions: peptide library: pTyr-Var.
For the molecule B1, the enrichment score is inactive: 0.971.

In the case of B2, the enrichment score is inactive: 1.79.

Regarding B3, the enrichment score is inactive: 1.15.

Turning to B4, the enrichment score was inactive: 1.68.

On to B5, for which the enrichment score was inactive: 0.933.

Regarding B6, the enrichment score is inactive: 1.06.

As to B7, the enrichment score is inactive: 1.26.

Turning to B8, the enrichment score is inactive: 0.316.

On to B9, for which the enrichment score was inactive: 0.905.

B10: the enrichment score is inactive: 2.03.

With B11, the enrichment score was inactive: 0.607.

With B12, the enrichment score was inactive: 0.474.

With B13, the enrichment score is inactive: 1.03.

For B14, the enrichment score was inactive: 0.567.

For B15, the enrichment score was inactive: 0.805.

With B16, the enrichment score was inactive: 0.589.

Regarding B17, the enrichment score is inactive: 0.34.

Turning to B18, the enrichment score was inactive: 1.02.

Consider B19, for which the enrichment score is inactive: 0.752.

For a further test, the target named is SHP2 N-SH2 domain T52S. The description is as above. The settings on record: peptide library: pTyr-Var.
As for B1, the enrichment score was inactive: 0.641.

Turning to B2, the enrichment score is inactive: 0.724.

For the molecule B3, the enrichment score is inactive: 1.11.

As to B4, the enrichment score is inactive: 1.72.

In the case of B5, the enrichment score was inactive: 0.831.

As for B6, the enrichment score is inactive: 1.14.

Regarding B7, the enrichment score is inactive: 1.48.

On to B8, for which the enrichment score was inactive: 0.363.

For B9, the enrichment score is inactive: 0.718.

For the molecule B10, the enrichment score was inactive: 1.12.

Turning to B11, the enrichment score was inactive: 0.763.

Consider B12, for which the enrichment score was inactive: 0.591.

In the case of B13, the enrichment score was inactive: 0.83.

For the molecule B14, the enrichment score was inactive: 0.98.

Consider B15, for which the enrichment score was inactive: 0.753.

As to B16, the enrichment score was inactive: 0.689.

Turning to B17, the enrichment score is inactive: 0.291.

Regarding B18, the enrichment score is inactive: 0.866.

As for B19, the enrichment score was inactive: 0.914.

For the next test, the target named is SHP2 N-SH2 domain wild-type. Described as above. As to conditions: peptide library: pTyr-Var.
B1: the enrichment score was inactive: 0.972.

On to B2, for which the enrichment score is inactive: 0.801.

Take B3: the enrichment score is inactive: 1.32.

On to B4, for which the enrichment score was inactive: 1.45.

With B5, the enrichment score is inactive: 0.837.

B6: the enrichment score is inactive: 1.29.

Take B7: the enrichment score was inactive: 1.35.

Take B8: the enrichment score is inactive: 0.363.

For B9, the enrichment score is inactive: 0.824.

As for B10, the enrichment score was inactive: 0.847.

As for B11, the enrichment score is inactive: 0.787.

Consider B12, for which the enrichment score is inactive: 0.631.

Consider B13, for which the enrichment score is inactive: 0.926.

Take B14: the enrichment score is inactive: 0.808.

With B15, the enrichment score was inactive: 0.635.

On to B16, for which the enrichment score is inactive: 0.678.

For B17, the enrichment score was inactive: 0.341.

B18: the enrichment score is inactive: 1.06.

Consider B19, for which the enrichment score is inactive: 1.27.
